Results as given in PubChem BioAssay AID493208 (National Center for Advancing Translational Sciences (NCATS), 2011).
About 340 (0.77%) of roughly 44,000 compounds were called active. Roughly 5% stayed inconclusive and do not appear here. Calls follow the shape of the dose curve; as a rule, active = well fitted inhibition curve with a large enough effect; inconclusive = small, poorly fitted or top-dose-only effect; inactive = flat fitted curve, though single readings scatter. The list shows a part of the results.

Test: Acumen qHTS Assay for Inhibitors of the mTORC1 Signaling Pathway in MEF (Tsc2-/-, p53-/-) Cells: Sytravon;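 also: plate controls were DMSO for no effect and rapamycin for full effect; nearly all actives have a fitted effect of over 50% in size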
Conditions: phospho-rpS6 immunofluorescence/PI, 24 h; series mostly up to 38.3 µM; activity change, negative = inhibition: at the top concentration
Outline: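 Plate MEFs (Tsc2-/-, p53-/-, empty vector) in DMEM/10% FBS; after 24 h add compound, incubate 24 h at 37 degree Celsius; fix in PFA/TX-100, block, stain phospho-rpS6 and 10 uM PI; scan at 488 nm; report % positive cells.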

| SMILES | activity change, negative = inhibition |
| --- | --- |
| CCOC(=O)N1CCc2c(sc(NCc3ccc(N(C)C)cc3)c2C(=O)Nc2ccc(OC)cc2)C1 | inactive: 13.2% |
| CC1CCc2c(sc(NC(=O)c3ccc(Cl)cc3Cl)c2C#N)C1 (stereo not drawn) | inactive: 4.63% |
| COc1ccc(NC(=O)CCc2c(C)nc3c(c2C)c(=O)n(C)c(=O)n3C)cc1OC | inactive: 2.16% |
| O=C1N(Cc2cccc(C(F)(F)F)c2)c2ccccc2S(=O)(=O)N1c1cccc(Cl)c1 | inactive: -0.155% |
| COc1ccc(CNC(=O)c2cc3cc(S(=O)(=O)N4CCCCC4)ccc3n2C)c(OC)c1 | inactive: -1.1% |
| Cc1c(Cl)cccc1N1C(N)=C(C#N)C(c2cc(CN3CCOCC3)cs2)C2=C1CCCC2=O (stereo not drawn) | inactive: -2.86% |
| O=c1c2sc3ccccc3c2n(Cc2cccc(C(F)(F)F)c2)c(=O)n1Cc1ccccc1 | inactive: -4.36% |
| CCN(CC)C(=O)CSc1nc2cc3c(cc2c(=O)n1CCCCCC(=O)NCCc1ccc(OC)c(OC)c1)OCO3 | inactive: -0.0959% |
| COCCNC(=O)CCc1c(C)nc2c(c(C)nn2-c2ccc(C)cc2)c1C | inactive: 0.636% |
| COc1ccc(CNC(=O)c2ccc3c(c2)N(Cc2ccccc2F)C(=O)c2ccccc2S3(=O)=O)cc1 | inactive: 0.0888% |
| CCOc1ccc(NC(=O)c2c(NCc3sccc3C)sc3c2CCCCC3)cc1 | inactive: -8.96% |
| Cc1cc(F)ccc1NC(=O)CN(C)S(=O)(=O)c1ccc(C(=O)N2CCOCC2)s1 | inactive: 6.84% |
| CCCN(CCC)c1nc(-c2ccccc2F)nc2ccccc12 | inactive: 1.54% |
| CCc1ccccc1NC(=O)CSC1=Nc2ccccc2C2=NC(Cc3ccccc3)C(=O)N12 (stereo not drawn) | inactive: 0% |
| COc1ccc(OCc2ccc(-c3nc(C#N)c(N4CCN(c5cccc(Cl)c5)CC4)o3)o2)cc1 | inactive: -1.64% |
| O=C(COc1ccc([N+](=O)[O-])cc1)Nc1cccc2cccnc12 | inactive: -2.47% |
| COc1cc(NC(=O)C2CCCN(S(=O)(=O)c3ccc4c(c3)CCCC(=O)N4)C2)cc(OC)c1 (stereo not drawn) | inactive: -2.05% |
| COc1cc(Cl)c(C)cc1NC(=O)Cn1ncc2c(=O)oc3ccccc3c21 | inactive: -0.975% |
| CCC(C(=O)OC)n1cnc2c(cnn2-c2ccc(F)cc2)c1=O (stereo not drawn) | inactive: 6.43% |
| COc1ccc(-c2nc(SCC(=O)c3ccc(OC)c(Br)c3)n[nH]2)cc1 | inactive: -0.284% |
| CSc1ncc(Cl)c(C(=O)Nc2ccc(S(=O)(=O)N3CCCC(C)C3)cc2)n1 (stereo not drawn) | inactive: -14.9% |
| CCOc1cccc(C2c3[nH]c4ccccc4c3CCN2C(=O)CCC2CCCC2)c1 (stereo not drawn) | inactive: 5.28% |
| Cc1cc(NC(=O)NCc2ccc3c(c2)CCN3C(=O)c2ccccc2)ccc1Br | inactive: 1.2% |
| CCOc1ccc(S(=O)(=O)c2cn(Cc3ccccc3)c3ccc(OCC)cc3c2=O)cc1 | inactive: 1.61% |

| SMILES | activity change, negative = inhibition |
| --- | --- |
| CC(C)(C)OC(=O)N1CCC(c2c(C(=O)NCc3ccco3)cnn2-c2ccccc2)CC1 | inactive: 0.811% |
| Cc1cc(=O)n2nc(N3CCC(C(=O)NCc4ccccc4)CC3)sc2n1 | inactive: 3.18% |
| Cc1ccc(NC(=O)Cn2cnc3nc4c(cc3c2=O)CCCC4)cc1Cl | inactive: 1.37% |
| CCc1ccc(CNC(=O)c2cnc3sc(N4CCCCC4)nn3c2=O)cc1 | inactive: -10.4% |
| Cc1cccc(C(=O)NC(=O)Nc2ccc(-c3cc(C(F)(F)F)nn3-c3ccccc3)cc2)c1 | inactive: -4.89% |
| CCn1c(=O)cc(SCC(=O)NCc2ccccc2OC)c2ccccc21 | inactive: -3.87% |
| COc1ccc2cc(C(=O)NCc3ccc4c(c3)CCN4C(=O)c3ccccc3)[nH]c2c1 | inactive: -6.84% |
| COc1ccc(C(=O)Nc2ccc(OCc3cc(=O)n4ccsc4n3)cc2)cc1OC | inactive: 0.216% |
| O=C(NCc1cccnc1)C(=O)NCC(c1cccnc1)N1CCN(c2ccccc2F)CC1 (stereo not drawn) | inactive: -6.78% |
| Cc1cc(C)c2c(=O)cc(C(=O)Nc3ccc(S(=O)(=O)N(C)Cc4ccccc4)cc3)oc2c1 | inactive: 6.58% |
| O=C(C1CCN(S(=O)(=O)c2cccc3nonc23)CC1)N1CCN(c2ccccc2F)CC1 | inactive: -1.63% |
| CCOC(=O)c1sc2ccccc2c1S(=O)(=O)N1CCN(c2cccc(C)c2C)CC1 | inactive: 2.61% |
| Cc1nn(-c2ccc(F)cc2)c(-n2cccc2)c1C(=O)NCCCN1CCN(c2cccc(Cl)c2)CC1 | inactive: -4.56% |
| COc1cccc(NC(=O)Cn2c(=O)n(CC(=O)NCc3ccc(C)cc3)c(=O)c3sccc32)c1 | inactive: 2.83% |
| Nc1nnc(SCC(=O)Nc2ccccc2)s1 | inactive: -9.56% |
| Cc1ccc2nc(-c3c[nH]c4ccccc34)c(Nc3ccccc3C)n2c1 | inactive: -19.5% |
| Cc1cc(C)c(NC(=O)CN2C(=O)c3cccnc3Oc3ccc(C)cc32)c(C)c1 | inactive: -3.25% |
| Cc1ccc(-c2cc(NC(=O)COc3ccc(Cl)c(C)c3)on2)cc1 | inactive: -0.358% |
| CCN1CCN(C(=O)Cn2ncc3c4ccccc4n(Cc4ccccc4)c3c2=O)CC1 | inactive: 1.35% |
| Cc1ccc(/C=C/C(=O)Nc2ccc(S(N)(=O)=O)cc2)o1 | inactive: -6.38% |
| Cc1cc(C)c(Cn2c3ccccc3c3cnn(CC(=O)NCc4ccccn4)c(=O)c32)c(C)c1 | inactive: -3.86% |
| O=C(CCS(=O)(=O)c1ccc(Br)cc1)Nc1ccc(Cl)c(C(F)(F)F)c1 | inactive: 1.36% |
| CCOC(=O)c1cccc(NC(=O)c2cn(-c3cccc(OC)c3)c(=O)c3ccccc23)c1 | inactive: -18.4% |
| COc1ccccc1CCNC(=O)C(=O)NCC(c1cccs1)S(=O)(=O)c1ccccc1 (stereo not drawn) | inactive: -11.7% |

| SMILES | activity change, negative = inhibition |
| --- | --- |
| Fc1cc(F)c2ncc3c(-c4ccccc4)nn(-c4cccc(Cl)c4)c3c2c1 | inactive: -1.77% |
| CC(C)OCCCNC(=O)C(=O)Nc1ccc2nc3n(c(=O)c2c1)CCCCC3 | inactive: -0.468% |
| Cc1ccc(Sc2ccc(N3CCC(C(=O)Nc4ccc(C)c(F)c4)CC3)nn2)cc1 | inactive: 1.53% |
| Cc1cccc(Cn2c(=O)n(Cc3ccccc3)c(=O)c3oc4ccccc4c32)c1 | inactive: 3.4% |
| Cc1ccccc1NC(=O)C1CCN(C(=O)c2cnn(-c3ccccc3)c2-n2cccc2)CC1 | inactive: -0.151% |
| COc1cc(NC(=O)N(Cc2ccco2)C2CCN(C(C)=O)CC2)cc(OC)c1OC | inactive: -8.05% |
| Cc1cccc(-c2nc3nc(C)cc(NCc4ccccc4Cl)n3n2)c1 | inactive: -3.34% |
| CC1CCN(c2oc(-c3ccc(COc4ccccc4)o3)nc2C#N)CC1 | inactive: -19.5% |
| CCc1ccc(-n2c(N3CCN(c4cccc(Cl)c4)CC3)nc3ccccc3c2=O)cc1 | inactive: -8.91% |
| Cc1ccc(-n2c(SCC(=O)NCc3ccccc3)nc3n[nH]c(C)c3c2=N)cc1Cl | inactive: -2.62% |
| O=C(NCC(c1cccs1)S(=O)(=O)c1cccs1)c1ccc(Cl)cc1 (stereo not drawn) | inactive: -4.33% |
| CC(C)c1cnc2c(c1SCc1cccc(F)c1)c(=O)n(C)c(=O)n2C | inactive: -12.3% |
| Cc1ccc(-c2nc3nc(C)cc(C)n3c2Nc2ccc3c(c2)OCCO3)cc1 | inactive: -0.286% |
| CC(=O)N1CCc2cc(Br)cc(S(=O)(=O)N3CCC(C)CC3)c21 | inactive: 0.592% |
| CCOc1ccc(NC(=O)Cn2c(=O)n(Cc3nc(-c4ccccc4)no3)c(=O)c3cc4c(cc32)OCO4)cc1 | inactive: -0.438% |
| CC(=O)c1ccc(NC(=O)c2nc(-c3ccccc3)n(-c3ccc(Cl)cc3)n2)cc1 | inactive: -0.165% |
| CCOC(=O)c1cc2c(=O)n3ccccc3nc2n(CCOC)c1=NC(=O)C(C)(C)Oc1ccc(Cl)cc1 | inactive: 1.3% |
| Cc1nc2nc(NC(=O)C(C)(C)C)[nH]n2c(=O)c1Cc1ccccc1 | inactive: 5.47% |
| Cc1ccc(Cn2ccn(CC(=O)Nc3c(C)cc(C)cc3C)c(=O)c2=O)cc1 | inactive: -1.03% |
| CCCCN(C)CCCNC(=O)Cn1ncc2c3ccccc3n(Cc3ccccc3F)c2c1=O | inactive: -0.143% |
| COc1ccc(NC(=O)Cn2c(=O)oc3cc(S(=O)(=O)NCc4ccccc4)ccc32)c(OC)c1 | inactive: 0.936% |
| Cc1noc(-c2ccc(N3CCC(C)CC3)c([N+](=O)[O-])c2)n1 | inactive: -7.85% |
| COc1ccc(NS(=O)(=O)c2cc3c(cc2C)NC(=O)CO3)c(OC)c1 | inactive: -1.03% |
| O=C(CSC1=Nc2ccccc2C2=NC(Cc3ccccc3)C(=O)N12)Nc1ccccc1C(F)(F)F (stereo not drawn) | inactive: 5.85% |

| SMILES | activity change, negative = inhibition |
| --- | --- |
| COc1cc(NC(=O)C2CCN(S(=O)(=O)c3ccc4c(c3)oc(=O)n4C)CC2)cc(OC)c1 | inactive: -1.41% |
| Cc1cn2c(=O)cc(COc3ccccc3NC(=O)c3ccc(C(C)(C)C)cc3)nc2s1 | inactive: 1.14% |
| Cc1cccc(CNC(=O)c2oc3c(c2C)-c2nn(Cc4cccc(Cl)c4)cc2CC3)c1 | inactive: -17.8% |
| CCOc1ccc(CN2C(=O)c3ccccc3Sc3ccc(C(=O)NC)cc32)cc1 | inactive: 2.24% |
| COC(=O)c1ccc2c(c1)N(CC(=O)Nc1cccc(Cl)c1C)C(=O)c1ccccc1S2 | inactive: 0.0086% |
| CC(C)NC(=O)Cn1c(=O)nc(-c2ccccc2F)c2cc(Cl)ccc21 | inactive: 0% |
| COc1ccc(-n2nnc(-c3nc(-c4cccs4)no3)c2N)cc1OC | inactive: -1.04% |
| COC(=O)c1c(NC(=O)c2nc(SCc3cccc(C)c3)ncc2Cl)sc2c1CCCC2 | inactive: 1.7% |
| CC(=O)N1CCCC1c1nc2ccccc2n1Cc1cccc(Cl)c1 (stereo not drawn) | inactive: 2.53% |
| COc1cc(NC(=O)CC(c2ccc(C)cc2)N2Cc3ccccc3C2=O)cc(OC)c1 (stereo not drawn) | inactive: -5.22% |
| Cc1ccc(-c2noc(-c3ccc(NCc4ccco4)c([N+](=O)[O-])c3)n2)cc1 | inactive: -5.15% |
| CC1=C(c2ccc(F)cc2)S(=O)(=O)NC1=NCc1ccccc1F | inactive: -1.89% |
| COc1cc(C2CC(=O)c3c([nH]c(C(=O)OCC4CCCCC4)c3C)C2)cc(OC)c1OC (stereo not drawn) | inactive: -19.8% |
| COc1ccccc1C(=O)Nc1nc2nc(-c3ccccc3)cc(=O)n2[nH]1 | inactive: 0.175% |
| CCc1nn2c(=O)cc(COC(=O)c3ccc(NC(=O)c4cccs4)cc3)nc2s1 | inactive: 0% |
| Cc1ccccc1NS(=O)(=O)c1ccc2[nH]cc(C(=O)NC(C)c3ccccc3)c(=O)c2c1 (stereo not drawn) | inactive: 0.6% |
| CCOc1ccccc1CNC(=O)Cn1ncn2nc(-c3cccs3)cc2c1=O | inactive: 1.33% |
| Cc1ccc(C)c(CNC(=O)C2CCN(c3nc4ccccc4nc3C(F)(F)F)CC2)c1 | inactive: -0.541% |
| COc1ccc(Nc2nnc(-c3cc4c(ccc5ccccc54)oc3=O)s2)cc1 | inactive: 6.41% |
| COc1ccccc1CCNC(=O)C(=O)NCC(c1cccs1)S(=O)(=O)c1ccc(C)cc1 (stereo not drawn) | inactive: 0.59% |
| O=C1C(=O)N(C2CCN(C(=O)c3ccc(Cl)cc3)CC2)CCN1Cc1ccc(F)cc1 | inactive: -1.49% |
